Experimental data reported in the supplement of paper PMC3334620.
Whole data set: some 33,000 sequences, median “E-score (-0.5 to 0.5)” near -0.012, cut for the highest 2% near 0.29. The list shows a part of the results.

These sequences were tested against T1, Ybr033w (UniProt P38073) (assay: PBM E-score (8-mer binding enrichment) (E-score (-0.5 to 0.5)); higher = stronger / more preferred TF binding; most listed sequences are background and not binding sites). Conditions: protein concentration: 200 nM; construct: GST-full length.
T1 sequence: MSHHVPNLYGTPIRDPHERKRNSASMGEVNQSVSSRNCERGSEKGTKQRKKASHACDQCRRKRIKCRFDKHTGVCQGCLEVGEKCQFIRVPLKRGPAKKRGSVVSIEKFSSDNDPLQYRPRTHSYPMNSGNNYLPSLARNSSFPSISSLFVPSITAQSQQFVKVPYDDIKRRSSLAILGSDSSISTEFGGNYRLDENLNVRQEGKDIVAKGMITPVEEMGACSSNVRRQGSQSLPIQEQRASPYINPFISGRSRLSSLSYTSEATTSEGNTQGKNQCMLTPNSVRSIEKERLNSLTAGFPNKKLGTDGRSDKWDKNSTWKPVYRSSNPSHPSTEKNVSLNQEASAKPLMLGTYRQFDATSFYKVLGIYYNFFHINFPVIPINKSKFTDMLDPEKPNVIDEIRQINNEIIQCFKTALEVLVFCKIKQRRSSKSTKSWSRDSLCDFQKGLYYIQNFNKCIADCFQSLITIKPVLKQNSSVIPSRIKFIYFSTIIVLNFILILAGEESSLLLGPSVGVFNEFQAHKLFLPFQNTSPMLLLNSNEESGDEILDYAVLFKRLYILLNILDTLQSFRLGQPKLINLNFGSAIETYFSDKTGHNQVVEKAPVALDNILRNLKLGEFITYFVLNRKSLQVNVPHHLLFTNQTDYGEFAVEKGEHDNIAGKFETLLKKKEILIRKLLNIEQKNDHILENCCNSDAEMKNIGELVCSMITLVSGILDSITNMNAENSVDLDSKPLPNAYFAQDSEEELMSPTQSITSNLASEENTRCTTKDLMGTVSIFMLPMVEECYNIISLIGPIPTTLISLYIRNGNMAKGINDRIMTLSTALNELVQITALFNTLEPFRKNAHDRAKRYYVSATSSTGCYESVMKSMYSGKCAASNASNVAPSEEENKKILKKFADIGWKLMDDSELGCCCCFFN
Procedure, shortened: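 Each ungapped eight-base word and its reverse complement, pooled, received an E-score from the Universal PBM Analysis Suite. Underlying scans, normalised with masliner, recorded fluorescent anti-GST bound to GST-tagged yeast transcription factors. These were applied at about 100-200 nM to universal all-10-mer Agilent arrays double-stranded by primer extension.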

Compared with GCAAAGAA, AAAAATTT is higher in “PBM E-score” value: 0.141 for the first, 0.283 for the second.

First: AGCGGTAA
Second: ACTATACG
The “PBM E-score” value of the first is higher: 0.0553 for the first, -0.0114 for the second.

Compared with AGTTAGCA, ATAGGCAC is lower in “PBM E-score” value: 0.148 for the first, -0.0539 for the second.

Compared with ACAATAGG, ACCAGAGG is lower in “PBM E-score” value: 0.185 for the first, 0.0474 for the second.

Compared with AATGCATA, AATAAAGA is higher in “PBM E-score” value: 0.126 for the first, 0.267 for the second.

Compared with AGTGCGAG, AGAGGCCA is lower in “PBM E-score” value: -0.0629 for the first, -0.233 for the second.

Compared with GACTCCTC, CCGGGATC is higher in “PBM E-score” value: 0.00762 for the first, 0.0254 for the second.

Compared with TCGTCTAA, ATCGTGGG is higher in “PBM E-score” value: -0.165 for the first, -0.0289 for the second.

Going from AGCCCGAT to TGTCCCAA, the “PBM E-score” value falls from 0.0653 to -0.0715.

Going from CGTATCTC to ATAGTCTG, the “PBM E-score” value rises from -0.0891 to 0.047.

Going from GACAGGGC to ATAGCGAG, the “PBM E-score” value rises from -0.285 to 0.0301.

Going from GACTGGGA to AGGTCAAA, the “PBM E-score” value rises from -0.159 to -0.0711.

Going from CTCGTCGC to ACTCAGCA, the “PBM E-score” value rises from -0.172 to 0.0235.

Going from CTCCCAAC to GGTTGCTA, the “PBM E-score” value rises from -0.248 to -0.175.

First: ACCTGTGC
Second: GTCTTCGA
The “PBM E-score” value of the first is higher: -0.0835 for the first, -0.158 for the second.

First: CGAGTGAG
Second: AAGAGTGA
The “PBM E-score” value of the first is lower: -0.0821 for the first, 0.0594 for the second.

Going from TCTCCAGA to CTACCAAA, the “PBM E-score” value rises from -0.189 to 0.0674.

Compared with AGAACACT, GCGTCATA is higher in “PBM E-score” value: 0.0257 for the first, 0.103 for the second.

Compared with AACCCGCA, AGGCTTGG is lower in “PBM E-score” value: -0.00368 for the first, -0.115 for the second.

First: AGAAAGTC
Second: ATAAATCG
The “PBM E-score” value of the first is lower: 0.173 for the first, 0.218 for the second.

Compared with GAGTCGAC, ACATAGTC is higher in “PBM E-score” value: -0.0211 for the first, 0.0687 for the second.

Compared with ACTCTCAG, GACAAGCC is lower in “PBM E-score” value: 0.0115 for the first, -0.0662 for the second.

Going from CGTCGACA to ACCCTGCT, the “PBM E-score” value falls from -0.0473 to -0.345.

Going from CATACAAG to CCGGAAAC, the “PBM E-score” value rises from -0.0705 to 0.14.

Compared with GGTCAGAA, GGAATTAA is higher in “PBM E-score” value: 0.00198 for the first, 0.349 for the second.

Compared with ATGTGTTG, CTCCGAAC is lower in “PBM E-score” value: 0.122 for the first, -0.172 for the second.

First: CCATGAGC
Second: ACCTCTCT
The “PBM E-score” value of the first is lower: -0.151 for the first, -0.126 for the second.

Compared with ATCAGGCA, GCATGTAA is higher in “PBM E-score” value: 0.0225 for the first, 0.0977 for the second.

First: AGCCTGAC
Second: AAAGTGAT
The “PBM E-score” value of the first is lower: -0.25 for the first, 0.204 for the second.

First: TAGATCAA
Second: CACATTAA
The “PBM E-score” value of the first is higher: 0.161 for the first, 0.156 for the second.

Compared with CAATCTGG, GATACCCA is higher in “PBM E-score” value: -0.0491 for the first, 0.0285 for the second.

First: AACGCTCC
Second: GACCCACC
The “PBM E-score” value of the first is higher: -0.0124 for the first, -0.317 for the second.

Going from ACTAAAGC to GCACGATA, the “PBM E-score” value rises from 0.0861 to 0.0979.

First: AAAGCGTA
Second: ACTCATCC
The “PBM E-score” value of the first is lower: 0.0704 for the first, 0.114 for the second.

Compared with AAACAGCC, ATGATTGG is higher in “PBM E-score” value: -0.0998 for the first, 0.118 for the second.

Going from GCTACGAA to CACGTATA, the “PBM E-score” value rises from -0.0523 to 0.0912.

Going from CGTCCGGA to ACGTCTAT, the “PBM E-score” value rises from -0.114 to -0.104.

First: CCTGGGCA
Second: ATTAAGCG
The “PBM E-score” value of the first is lower: -0.239 for the first, 0.0998 for the second.

First: CATCGGAC
Second: AGCTATGA
The “PBM E-score” value of the first is lower: -0.235 for the first, 0.0695 for the second.

First: AAATCTGA
Second: GCGGTGAA
The “PBM E-score” value of the first is higher: 0.221 for the first, -0.0498 for the second.

Compared with TAACCTCA, AGCGTTCA is lower in “PBM E-score” value: 0.0768 for the first, -0.158 for the second.

Compared with GGCAAACC, CATACCTC is higher in “PBM E-score” value: -0.232 for the first, 0.0715 for the second.

Going from AGAAAACG to GGACTCCA, the “PBM E-score” value falls from 0.149 to -0.0628.

Going from CCCCATGA to CCATCAAG, the “PBM E-score” value rises from -0.148 to 0.0693.

First: ACCATCCA
Second: CGATATCA
The “PBM E-score” value of the first is lower: -0.093 for the first, 0.152 for the second.

Going from GCCGGTGA to AATCGCCG, the “PBM E-score” value rises from -0.228 to -0.173.

Going from CACCGTCC to CCGACACA, the “PBM E-score” value falls from -0.0719 to -0.202.

Going from ATTATATA to AGGCCGCA, the “PBM E-score” value falls from 0.297 to -0.0886.

AGGTCCAT and CACTCACA are the same in “PBM E-score” value: -0.155 for the first, -0.155 for the second.

Going from TCGCTAAA to ACTGTTCA, the “PBM E-score” value falls from 0.0515 to -0.106.

First: AGGAACTC
Second: GACACATA
The “PBM E-score” value of the first is lower: -0.0312 for the first, 0.0666 for the second.

Going from AGTAACGA to AACGCAGC, the “PBM E-score” value falls from 0.0428 to 0.01.

Going from AAGGTAGT to AAGCGACA, the “PBM E-score” value falls from 0.0535 to -0.0531.

First: CGCTTGAG
Second: AATTTCGT
The “PBM E-score” value of the first is lower: -0.0728 for the first, 0.171 for the second.

First: AGATAAAA
Second: ACCTTTGA
The “PBM E-score” value of the first is higher: 0.286 for the first, -0.004 for the second.

First: ACGTCATG
Second: ATTACGCG
The “PBM E-score” value of the first is lower: -0.0366 for the first, 0.0111 for the second.

Compared with ACCAGCGA, CGGGTAAC is lower in “PBM E-score” value: -0.139 for the first, -0.176 for the second.

Going from GCAATCGA to ATCCTCAA, the “PBM E-score” value rises from 0.0856 to 0.158.

Compared with CAGCCGCA, GAATTCAC is higher in “PBM E-score” value: -0.102 for the first, 0.0365 for the second.

First: GTATCCAA
Second: TCCAATCA
The “PBM E-score” value of the first is higher: 0.117 for the first, 0.0621 for the second.

Going from CTCGTTGA to AAATTAGA, the “PBM E-score” value rises from -0.056 to 0.225.

Compared with CCATGTGA, CACCGGAA is higher in “PBM E-score” value: -0.0886 for the first, 0.178 for the second.

Going from GAAAGTCC to ATTGACAG, the “PBM E-score” value rises from -0.074 to -0.0692.

Compared with CTTCGGGC, GGTACTAC is higher in “PBM E-score” value: -0.246 for the first, 0.0644 for the second.

Going from GCGAAGCA to AGTGGCAT, the “PBM E-score” value rises from -0.117 to -0.036.

First: CCACTAAG
Second: CGCAGTTC
The “PBM E-score” value of the first is higher: -0.0298 for the first, -0.0876 for the second.

Going from AGTAGCCC to GGAGGACC, the “PBM E-score” value falls from -0.055 to -0.327.

Compared with TATTGGGA, AGATTTTA is lower in “PBM E-score” value: 0.165 for the first, 0.109 for the second.

Compared with AGACTCAG, AGGACTGC is lower in “PBM E-score” value: 0.00993 for the first, -0.353 for the second.

Compared with CCCGATTA, CACCGATG is lower in “PBM E-score” value: 0.0442 for the first, -0.241 for the second.

Going from CTGCACAG to CGGACTAA, the “PBM E-score” value rises from -0.0409 to 0.121.

First: AGTTTTGC
Second: AGGGATGG
The “PBM E-score” value of the first is higher: 0.247 for the first, -0.072 for the second.

First: TAGCTAAA
Second: GGGAAGAC
The “PBM E-score” value of the first is higher: 0.0815 for the first, -0.19 for the second.

First: ACGACGCA
Second: AATCCCCA
The “PBM E-score” value of the first is higher: 0.0506 for the first, 0.0287 for the second.

First: CACACCAG
Second: GTGGGCGA
The “PBM E-score” value of the first is lower: -0.057 for the first, 0.0877 for the second.

First: GTATTCGA
Second: ACGGATCT
The “PBM E-score” value of the first is lower: -0.2 for the first, -0.0351 for the second.

First: CCGGAGAC
Second: ACAGACCA
The “PBM E-score” value of the first is lower: 0.0322 for the first, 0.0694 for the second.

Compared with ATAGAACC, CAGAGGAC is lower in “PBM E-score” value: 0.069 for the first, -0.0681 for the second.

First: ACTAGTAT
Second: GCGTTGTA
The “PBM E-score” value of the first is higher: 0.24 for the first, -0.0845 for the second.

First: CCATGAAA
Second: CTAGCCAC
The “PBM E-score” value of the first is higher: 0.143 for the first, -0.227 for the second.

Compared with TAAAGAAA, AGCTACGC is lower in “PBM E-score” value: 0.273 for the first, -0.139 for the second.

Going from ACGAACGC to ACGTTAGG, the “PBM E-score” value rises from -0.0736 to 0.0113.

Going from ACTGAAAA to ATCACCAG, the “PBM E-score” value falls from 0.0442 to -0.00414.

Going from GGTAGTCA to CGCGGATA, the “PBM E-score” value rises from -0.15 to 0.24.

First: CTTAGCTA
Second: ACGCCTCG
The “PBM E-score” value of the first is higher: -0.0586 for the first, -0.18 for the second.

First: CTTCTCTC
Second: ACAAGGGT
The “PBM E-score” value of the first is higher: 0.0872 for the first, -0.0518 for the second.
